# Laboratory results as given in PubChem BioAssay AID686978 (National Center for Advancing Translational Sciences (NCATS), 2013).
# The campaign covered roughly 420,000 compounds. About 64,000 (15%) were called active. Inconclusive results, whose numbers are uncertain, are shown with a selection of clear calls. Calls come from the whole dose curve; as a rule, active = well fitted inhibition curve with a large enough effect; inconclusive = small, poorly fitted or top-dose-only effect; inactive = flat fitted curve, though single readings scatter. Potencies of inconclusive entries are left out as doubtful fits.
# Assay: qHTS for Inhibitors of human tyrosyl-DNA phosphodiesterase 1 (TDP1): qHTS in cells in absence of CPT; note: nearly all actives have a fitted effect of over 55% in size
# Settings: DT40 Tdp1-/- hTDP1 cells, no CPT, ATP luminescence, 48 h; activity change, negative = growth inhibition: at 46.2 µM (top of the series) unless noted
# Procedure, shortened: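 Seeded 400 DT40-hTDP1 cells/well (vehicle DMSO, no 20 nM CPT); pinned compounds; ≥48 hr at 37 °C; CellTiter-Glo luminescence as viability measure.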
# % is set by controls: 0 for no effect and ±100 for the full control effect; potency is the fitted concentration of half-maximal effect; tags give direction and shape of the fitted curve.
SMILES,Potency,"activity change, negative = growth inhibition"
C/C(=N/NC(=O)c1ccc(-c2ccccc2)cc1)c1cccc(O)c1,inactive,
O=c1cc(-c2cccc(O)c2)oc2ccc(O)cc12,"inconclusive [inhibitor, full curve, poor fit]",
CCCCCc1cc[n+](CC(=O)c2ccccc2)cc1,"inconclusive [inhibitor, single point]",
Cc1ccc(C(=O)NNC(=O)CSc2nnc(-c3ccccc3)n2Cc2ccccc2)cc1,"inconclusive [inhibitor, single point]",
COc1ccc(OCC(=O)Nc2ccc(NC(=O)c3ccco3)c(C)c2)cc1,inactive,
COc1ccc(NC(=S)NCCc2c[nH]c3ccc(OC)cc23)c(OC)c1,"inconclusive [inhibitor, partial curve]",
CCCC(=O)N1CCCC(c2cc(C(=O)Nc3ccc4c(c3)OCO4)no2)C1 (configuration not stated),inactive,
COc1cc(C(O)c2nc(-c3ccc(F)cc3OC)cs2)ccc1F (configuration not stated),"inconclusive [inhibitor, single point]",
Cc1ccc2nc(NC(=O)CSc3nccn3Cc3ccc(Cl)cc3)sc2c1,inactive,
Cc1cc(C(=O)N/N=C/c2ccc(-c3cccc(Cl)c3Cl)o2)n[nH]1,"inconclusive [inhibitor, partial curve]",
CC1CCN(C(=S)Nc2cccc(S(=O)(=O)N(C)C)c2)CC1,"inconclusive [inhibitor, single point]",
CCOC(=O)N1CCc2[nH]c3ccc(C)cc3c2C1,active: 23.1 µM,
CN(C(=O)C1CCN(S(=O)(=O)c2cccs2)CC1)C1CCCCC1,inactive,
Cc1cc(-c2ccccc2)n2nc(N)nc2n1,inactive,
O=C(NCCCN1CCOCC1)c1cc2c(s1)CCC2,inactive,
Cc1[nH]c2ccccc2c1C(=O)COc1ccccc1F,"inconclusive [inhibitor, single point]",
OC/C=C/c1ccc(O)c(O)c1,inactive,
O=C(N/N=C/c1sc(=O)n(-c2ccccc2)c1Cl)c1ccncc1,"inconclusive [inhibitor, partial curve]",
COc1cc(/C=N/NC(=O)c2c(-c3ccccc3)noc2C)cc(OC)c1OC,"inconclusive [inhibitor, partial curve]",
COC(CNC(=O)C1CCCCC1C(=O)O)OC (configuration not stated),"inconclusive [inhibitor, single point]",
CCCC#Cc1ccc2c(c1)O[C@@H](CN(C)Cc1ccc3c(c1)OCO3)[C@H](C)CN([C@@H](C)CO)S2(=O)=O,active: 2.31 µM,
CC(=O)c1ccc(NC(=O)CN2C(=O)NC3(CCc4ccccc43)C2=O)cc1 (configuration not stated),inactive,
CSc1ccc(CCNC(=O)c2cnn(-c3ccccc3)c2-n2cccc2)cc1,active: 14.6 µM,
CC1(C)CC(=O)C(C=Nc2cccnc2/N=C/C2=C(O)CC(C)(C)CC2=O)=C(O)C1,"inconclusive [inhibitor, single point]",

SMILES,Potency,"activity change, negative = growth inhibition"
C=CCOc1cccc(C2c3c(oc4ccccc4c3=O)C(=O)N2c2ccccn2)c1 (configuration not stated),"inconclusive [inhibitor, single point]",
O=C(Nc1cccc(Cl)c1)N1CCSc2ccccc21,"inconclusive [inhibitor, single point]",
CCc1ccc(NC(=O)Nc2ccc3c(c2)N(C)C(=O)CS3)cc1,"inconclusive [inhibitor, single point]",
CC(C)NC(=O)CSc1ccccc1C(=O)NNC(=O)Cn1ccc(C(F)(F)F)n1,"inconclusive [inhibitor, partial curve, poor fit]",
CCOC(=O)Cc1csc(NS(=O)(=O)c2cc(Cl)ccc2Cl)n1,"inconclusive [inhibitor, single point]",
COc1ccccc1NC(=O)CSc1nc2ccccc2nc1N1CC(C)OC(C)C1 (configuration not stated),"inconclusive [inhibitor, single point]",
CN(C(=O)COC(=O)c1cnc(Cl)c(Cl)c1)C1CCS(=O)(=O)C1 (configuration not stated),inactive,
CCc1c(C(=O)NNC(=S)NCCc2ccccc2)csc1C,"inconclusive [inhibitor, partial curve]",
OCCNc1ncnc2oc(-c3ccco3)c(-c3ccco3)c12,active: 20 µM,
COC(=O)C1CCN(Cc2ccc3c(c2)CN(C(=O)c2cc4cc(F)ccc4[nH]2)CCO3)CC1,active: 14.6 µM,
Cc1cc(C)n(CC(O)Cn2c3ccccc3c3ccccc32)n1 (configuration not stated),"inconclusive [inhibitor, single point]",
COc1ccc(C)cc1Nc1nc(N)c2ccccc2n1,"inconclusive [inhibitor, single point]",
CC(C)c1ccc(-c2nnc(SCC(=O)NC3CC3)n2C)cc1,inactive,
C=C(C)CNC(=S)N=Nc1c(O)[nH]c2ccc([N+](=O)[O-])cc12,active: 4.61 µM,
Cc1cc2nc3c(nc2cc1C)C1(C(=O)N(C)C)CCC3(C)C1(C)C (configuration not stated),"inconclusive [inhibitor, single point]",
COc1ccc(OC)c(-c2cc(C(=O)NCCc3ccccc3)c3c(-c4ccc(C)cc4)[nH]nc3n2)c1,active: 13 µM,
Cc1ccc2[nH]c(=O)c(CN(Cc3ccco3)C(=O)c3ccncc3)cc2c1,active: 10.3 µM,
O=C(N/N=C/c1ccc(Br)s1)c1ccncc1,"inconclusive [inhibitor, single point]",
CC(=O)N(C)c1ccc(NC(=O)COc2ccc(Br)cc2C)cc1,,inconclusive: -34.4% [inhibitor]
COc1cccc(C2c3c(oc4ccc(Cl)cc4c3=O)C(=O)N2c2cc(C)on2)c1OC (configuration not stated),"inconclusive [inhibitor, single point]",
Cc1cccc(NC(=O)CNC(=O)COc2cccnc2[N+](=O)[O-])c1C,inactive,
Cc1ccc(N2C(=O)CSC23C(=O)N(CC(=O)NCCc2ccccc2)c2ccccc23)cc1C (configuration not stated),"inconclusive [inhibitor, single point]",
Cc1cccc(NC(=S)N(Cc2ccco2)C(C)c2cccs2)c1 (configuration not stated),"inconclusive [inhibitor, single point]",
